Consider ten molecules from article PMC6624267.

Where a chain is given by its changes, count along the chain named. Names and notes keep the numbering of the source. These are yes or no findings as the source states them, for the method shown. For some of these results: In cells and extracts the contact can be indirect. Some results given as binding are weak or reduced against the parent protein; the word gives no strength.

The target of one experiment is CARD9^2−97 R29D (human) (UniProt Q9H257). The experiment can be described thus: absorbance at 350 nm + other: negative-stain EM; CARD9^2−97 polymerisation: 1:1 Zn2+-bound CARD, EDTA added at t = 0; 50 mM Tris, 150 mM NaCl, 0.5 mM TCEP, pH 7.0, 25 °C, shaking; NS-EM grids at 90 min; both purified.
Another experiment addresses CARD9^2−97 E15R (human) (UniProt Q9H257). The experiment is described as above.
Experiment [1] deals with CARD9^2−97 R35Q (clinically identified mutant) (human) (UniProt Q9H257). The experiment is described as above.
Another experiment concerns the target CARD9^2−97 R35E (human) (UniProt Q9H257). The experiment is described as above.
The next experiment concerns the target CARD9^2−97 D43R (human) (UniProt Q9H257). The description is as above.
The target of a further experiment is CARD9^2−97 K58D (human) (UniProt Q9H257). The description is as above.
Another experiment deals with CARD9^2−97 D66R (human) (UniProt Q9H257). The description is as above.
The target in experiment [2] is CARD9^1−142/WT-mEos3.1 (yeast) (UniProt Q9H257). The experiment can be described thus: FRET or BRET; DAmFRET: mEos3.1 fusions expressed over a range of concentrations in S. cerevisiae, partly photoconverted, read by flow cytometry; self-assembly.
Experiment [3] concerns the target CARD9^1−142/I107E-mEos3.1 (yeast) (UniProt Q9H257). The experiment is described as above.
The target in experiment [4] is CARD9^2−152/L115I (human) (UniProt Q9H257). Kind of experiment: condition: only at 25 °C, 10 min after Zn2+ removal; negative-stain EM; CARD9^2–152 constructs purified 1:1 with Zn2+, Zn2+ removed with a twofold excess of EDTA, incubated at the indicated concentration, time and temperature; 50 mM HEPES, 150 mM NaCl, 0.5 mM TCEP, pH 7.0; step: dimers to filaments; both purified.

B1: CARD9^2−97 R29D (domain or fragment, UniProt Q9H257 2-97)
chain: SDYENDDECWSVLEGFRVTLTSVIDPSDITPYLRQCKVLNPDDEEQVLSDPNLVIRKRKVGVLLDILQRTGHKGYVAFLESLELYYPQLYKKVTGK
B1: the binding entry with CARD9^2−97 R29D (human) is on record as “no binding (tested: 1 mM)”.

B2: CARD9^2−97 E15R (domain or fragment, UniProt Q9H257 2-97)
chain: B1 chain with E14R, D28R
As for B2, in the experiment with CARD9^2−97 E15R (human), the binding result is recorded as “no binding (tested: 1 mM)”.

B3: CARD9^2−97 R35Q (clinically identified mutant) (domain or fragment, UniProt Q9H257 2-97)
chain: B1 chain with D28R, R34Q
As for B3, the binding result in experiment [1] is listed as “no binding”.

B4: CARD9^2−97 R35E (domain or fragment, UniProt Q9H257 2-97)
chain: B1 chain with D28R, R34E
With B4, the binding entry with CARD9^2−97 R35E (human) is given as “no binding (tested: 1 mM)”.

B5: CARD9^2−97 D43R (domain or fragment, UniProt Q9H257 2-97)
chain: B1 chain with D28R, D42R
For B5, the binding result with CARD9^2−97 D43R (human) is on record as “no binding (tested: 1 mM)”.

B6: CARD9^2−97 K58D (domain or fragment, UniProt Q9H257 2-97)
chain: B1 chain with D28R, K57D
With B6, the binding result in the experiment with CARD9^2−97 K58D (human) is on record as “no binding (tested: 1 mM)”.

B7: CARD9^2−97 D66R (domain or fragment, UniProt Q9H257 2-97)
chain: B1 chain with D28R, D65R
Take B7: the binding entry with CARD9^2−97 D66R (human) is “no binding (tested: 1 mM)”.

B8: CARD9^1−142/WT-mEos3.1 (yeast) (domain or fragment, UniProt Q9H257 1-142)
chain: MSDYENDDECWSVLEGFRVTLTSVIDPSRITPYLRQCKVLNPDDEEQVLSDPNLVIRKRKVGVLLDILQRTGHKGYVAFLESLELYYPQLYKKVTGKEPARVFSMIIDASGESGLTQLLMTEVMKLQKKVQDLTALLSSKDD
As to B8, the binding entry in [2] is “binds”.

B9: CARD9^1−142/I107E-mEos3.1 (yeast) (domain or fragment, UniProt Q9H257 1-142)
chain: B8 chain with I107E
As to B9, in experiment [3], the binding entry is reported as “binds”.

B10: CARD9^2−152/L115I (domain or fragment, UniProt Q9H257 2-152)
chain: SDYENDDECWSVLEGFRVTLTSVIDPSRITPYLRQCKVLNPDDEEQVLSDPNLVIRKRKVGVLLDILQRTGHKGYVAFLESLELYYPQLYKKVTGKEPARVFSMIIDASGESGITQLLMTEVMKLQKKVQDLTALLSSKDDFIKELRVKDS
Consider B10, for which the binding entry in experiment [4] is recorded as “no binding”.
